Measured values taken from article PMC12529666.
The list shows a part of the results, in another mix than the full data. At the low end of the ranking, values are background and their order means little. The list shows a part of the results.

Key:
[1] = target: AGO2 WT (phosphosite mutant background) S387D + S824A + S828D + S831D + S834A (UniProt Q9UKV8); assay: RNA Bind-n-Seq (nitrocellulose filter binding and sequencing); settings: constant regions annealed to DNA blockers; guide miR-122 5' phosphate; 30 mM Tris pH 8.0, 100 mM potassium acetate, 2 mM magnesium acetate, 0.5 mM TCEP, 0.005% NP-40, 0.01 mg/ml yeast tRNA; 3 nM AGO2-miR-122, 100 nM RNA library …; high values mean tight binding
[2] = target: AGO2 F182del S387D + S824A + S828D + S831D + S834A + del182-182 (UniProt Q9UKV8); assay: as above; settings: constant regions annealed to DNA blockers; guide miR-122 5' phosphate; 30 mM Tris pH 8.0, 100 mM potassium acetate, 2 mM magnesium acetate, 0.5 mM TCEP, 0.005% NP-40, 0.01 mg/ml yeast tRNA; 3 nM AGO2-miR-122, 100 nM RNA library …; high values mean tight binding

**Q.** Which results are given for “GAGUUCUACAGUCCGACGAUCCCAACGUACCUCGCACCUGGAAUUCUCGGGUGCCAA / UGGAGUGUGACAAUGGUGUUUG / GATCGTCGGACTGTAGAACTC / TTGGCACCCGAGAATTCCA”?
**A.** binding signal (fold enrichment over input) [1]: 0.0846; binding signal (fold enrichment over input) [2]: 0.056

**Q.** “GAGUUCUACAGUCCGACGAUCCCAACACAUUCUGCACCUGGAAUUCUCGGGUGCCAA / UGGAGUGUGACAAUGGUGUUUG / GATCGTCGGACTGTAGAACTC / TTGGCACCCGAGAATTCCA” was tested. Which binding signal (fold enrichment over input) [1] did it give?
**A.** The binding signal (fold enrichment over input) was 0.0862.

**Q.** And the binding signal (fold enrichment over input) [2]?
**A.** The binding signal (fold enrichment over input) was 0.0753.

**Q.** For “GAGUUCUACAGUCCGACGAUCCCAACGCAUUUCGCACCUGGAAUUCUCGGGUGCCAA / UGGAGUGUGACAAUGGUGUUUG / GATCGTCGGACTGTAGAACTC / TTGGCACCCGAGAATTCCA”, which binding signal (fold enrichment over input) [1] is on record?
**A.** The binding signal (fold enrichment over input) was 0.0838.

**Q.** What about the binding signal (fold enrichment over input) [2] of the same sequence?
**A.** Its binding signal (fold enrichment over input) is 0.04.

**Q.** What does the source list for “GAGUUCUACAGUCCGACGAUCCCAACGCGCCCUGCACCUGGAAUUCUCGGGUGCCAA / UGGAGUGUGACAAUGGUGUUUG / GATCGTCGGACTGTAGAACTC / TTGGCACCCGAGAATTCCA”?
**A.** binding signal (fold enrichment over input) [1]: 0.109; binding signal (fold enrichment over input) [2]: 0.0476

**Q.** Which binding signal (fold enrichment over input) [1] does the source give for “GAGUUCUACAGUCCGACGAUCCCAACAUACCCUGCACCUGGAAUUCUCGGGUGCCAA / UGGAGUGUGACAAUGGUGUUUG / GATCGTCGGACTGTAGAACTC / TTGGCACCCGAGAATTCCA” here?
**A.** The binding signal (fold enrichment over input) was 0.0988.

**Q.** What about the binding signal (fold enrichment over input) [2] of the same sequence?
**A.** The binding signal (fold enrichment over input) was 0.0596.

**Q.** For “GAGUUCUACAGUCCGACGAUCCCAACAUACUUCACACCUGGAAUUCUCGGGUGCCAA / UGGAGUGUGACAAUGGUGUUUG / GATCGTCGGACTGTAGAACTC / TTGGCACCCGAGAATTCCA”, which binding signal (fold enrichment over input) [2] is on record?
**A.** Its binding signal (fold enrichment over input) is 1.33.

**Q.** Which binding signal (fold enrichment over input) [2] does the source give for “GAGUUCUACAGUCCGACGAUCCCAACGCACUCUACACCUGGAAUUCUCGGGUGCCAA / UGGAGUGUGACAAUGGUGUUUG / GATCGTCGGACTGTAGAACTC / TTGGCACCCGAGAATTCCA” here?
**A.** The binding signal (fold enrichment over input) was 0.786.

**Q.** How did the binding signal (fold enrichment over input) [1] turn out when “GAGUUCUACAGUCCGACGAUCCCAACGUGUCUUACACCUGGAAUUCUCGGGUGCCAA / UGGAGUGUGACAAUGGUGUUUG / GATCGTCGGACTGTAGAACTC / TTGGCACCCGAGAATTCCA” was run?
**A.** The binding signal (fold enrichment over input) was 0.113.

**Q.** And the binding signal (fold enrichment over input) [2]?
**A.** Its binding signal (fold enrichment over input) is 0.0799.

**Q.** What does the source list for “GAGUUCUACAGUCCGACGAUCCCAACACGCUUCGCACCUGGAAUUCUCGGGUGCCAA / UGGAGUGUGACAAUGGUGUUUG / GATCGTCGGACTGTAGAACTC / TTGGCACCCGAGAATTCCA”?
**A.** binding signal (fold enrichment over input) [1]: 0.0824; binding signal (fold enrichment over input) [2]: 0.0559

**Q.** “GAGUUCUACAGUCCGACGAUCCCAACGCGCUCCGCACCUGGAAUUCUCGGGUGCCAA / UGGAGUGUGACAAUGGUGUUUG / GATCGTCGGACTGTAGAACTC / TTGGCACCCGAGAATTCCA” was tested. Which binding signal (fold enrichment over input) [1] did it give?
**A.** Its binding signal (fold enrichment over input) is 1.39.

**Q.** What about the binding signal (fold enrichment over input) [2] of the same sequence?
**A.** Its binding signal (fold enrichment over input) is 7.66.

**Q.** What does the source list for “GAGUUCUACAGUCCGACGAUCCCAACGCAUCCCACACCUGGAAUUCUCGGGUGCCAA / UGGAGUGUGACAAUGGUGUUUG / GATCGTCGGACTGTAGAACTC / TTGGCACCCGAGAATTCCA”?
**A.** binding signal (fold enrichment over input) [1]: 0.116; binding signal (fold enrichment over input) [2]: 0.282

**Q.** “GAGUUCUACAGUCCGACGAUCCCAACGCGCUUCGCACCUGGAAUUCUCGGGUGCCAA / UGGAGUGUGACAAUGGUGUUUG / GATCGTCGGACTGTAGAACTC / TTGGCACCCGAGAATTCCA” was tested. Which binding signal (fold enrichment over input) [1] did it give?
**A.** Its binding signal (fold enrichment over input) is 0.0946.

**Q.** What about the binding signal (fold enrichment over input) [2] of the same sequence?
**A.** The binding signal (fold enrichment over input) was 0.0396.

**Q.** For “GAGUUCUACAGUCCGACGAUCCCAACACAUCUCGCACCUGGAAUUCUCGGGUGCCAA / UGGAGUGUGACAAUGGUGUUUG / GATCGTCGGACTGTAGAACTC / TTGGCACCCGAGAATTCCA”, which binding signal (fold enrichment over input) [1] is on record?
**A.** The binding signal (fold enrichment over input) was 0.0811.

**Q.** And the binding signal (fold enrichment over input) [2]?
**A.** The binding signal (fold enrichment over input) was 0.0736.

**Q.** Which binding signal (fold enrichment over input) [2] does the source give for “GAGUUCUACAGUCCGACGAUCCCAACGCACUCCGCACCUGGAAUUCUCGGGUGCCAA / UGGAGUGUGACAAUGGUGUUUG / GATCGTCGGACTGTAGAACTC / TTGGCACCCGAGAATTCCA” here?
**A.** Its binding signal (fold enrichment over input) is 69.5.

**Q.** With “GAGUUCUACAGUCCGACGAUCCCAACAUAUCUUACACCUGGAAUUCUCGGGUGCCAA / UGGAGUGUGACAAUGGUGUUUG / GATCGTCGGACTGTAGAACTC / TTGGCACCCGAGAATTCCA” as the sequence, how does the binding signal (fold enrichment over input) [1] read?
**A.** Its binding signal (fold enrichment over input) is 0.113.

**Q.** What about the binding signal (fold enrichment over input) [2] of the same sequence?
**A.** Its binding signal (fold enrichment over input) is 0.0887.

**Q.** For “GAGUUCUACAGUCCGACGAUCCCAACGUAUCUCGCACCUGGAAUUCUCGGGUGCCAA / UGGAGUGUGACAAUGGUGUUUG / GATCGTCGGACTGTAGAACTC / TTGGCACCCGAGAATTCCA”, which binding signal (fold enrichment over input) [1] is on record?
**A.** Its binding signal (fold enrichment over input) is 0.0879.

**Q.** What about the binding signal (fold enrichment over input) [2] of the same sequence?
**A.** Its binding signal (fold enrichment over input) is 0.0455.

**Q.** “GAGUUCUACAGUCCGACGAUCCCAACAUACUCUACACCUGGAAUUCUCGGGUGCCAA / UGGAGUGUGACAAUGGUGUUUG / GATCGTCGGACTGTAGAACTC / TTGGCACCCGAGAATTCCA” was tested. Which binding signal (fold enrichment over input) [1] did it give?
**A.** The binding signal (fold enrichment over input) was 0.101.

**Q.** And the binding signal (fold enrichment over input) [2]?
**A.** Its binding signal (fold enrichment over input) is 0.128.

**Q.** Which results are given for “GAGUUCUACAGUCCGACGAUCCCAACAUGCCUUACACCUGGAAUUCUCGGGUGCCAA / UGGAGUGUGACAAUGGUGUUUG / GATCGTCGGACTGTAGAACTC / TTGGCACCCGAGAATTCCA”?
**A.** binding signal (fold enrichment over input) [1]: 0.105; binding signal (fold enrichment over input) [2]: 0.076
